Values marked as one replicate rest on one cluster of the flow cell; about a third of the high ones do not repeat.
System: ATP
Assay: switch fluorescence ratio, 500 uM ATP over buffer (Cy3 cluster intensity, sum of 5 cycles each) (fold (ratio)); higher = stronger signal-on switching upon ATP binding; sequences stand for … in TCGTCGGCAGCGTCAGATGTGTATAAGAGACAGTTTTTTTTTTTTTTTTTTTTTTTTT…TC
Settings: aptamer strand: ATP DNA aptamer (quencher-CACCTGGGGGAGTATTGCGGAGGAAGG + anchor), 100 nM annealed; ATP concentration: 500 uM; one replicate
How it was run: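 Imaging in selection buffer was followed by imaging after 15 min with 500 uM ATP at 22 °C, for Cy3-labelled switching-strand clusters annealed to 100 nM quencher-labelled ATP aptamer on a modified Illumina MiSeq flow-cell. Five of these buffer/ATP cycles ran, separated by NaOH stripping and re-annealing. The fluorescence ratio per cluster is summed target-cycle over summed buffer-cycle Cy3 intensity, averaged per switch-domain sequence; clusters outside 100-1000 RFU were removed.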
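Note: ATP exposure 15 min at 22 °C before imaging.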

Sequence: GATGATATC
- switch fluorescence ratio: 1

Sequence: GGGGGTTAGC
- switch fluorescence ratio: 0.99

Sequence: CGTTCTGTGC
- switch fluorescence ratio: 1.03

Sequence: TAACTACACG
- switch fluorescence ratio: 1.29

Sequence: CAAAATAAGG
- switch fluorescence ratio: 1.01

Sequence: GATAGGAGAG
- switch fluorescence ratio: 1.03

Sequence: AGATCCCAGC
- switch fluorescence ratio: 1.02

Sequence: GACTCGCTGA
- switch fluorescence ratio: 1.16

Sequence: GGGACTCTAG
- switch fluorescence ratio: 1.02

Sequence: CCGAGCTCTA
- switch fluorescence ratio: 2.2

Sequence: TATCGTAAAG
- switch fluorescence ratio: 0.993

Sequence: GGCTGCAAGC
- switch fluorescence ratio: 1.05

Sequence: TTGTCTATCT
- switch fluorescence ratio: 0.963

Sequence: AGCTTTTTCA
- switch fluorescence ratio: 1.06

Sequence: AAATACGGTC
- switch fluorescence ratio: 1.09

Sequence: CGACTACATG
- switch fluorescence ratio: 1.02

Sequence: GGAAAATTGC
- switch fluorescence ratio: 1.01

Sequence: TCAGGGACAT
- switch fluorescence ratio: 0.993

Sequence: GGAATAGATA
- switch fluorescence ratio: 0.98

Sequence: TAGAGTTGAA
- switch fluorescence ratio: 0.973

Sequence: TGTCATAATA
- switch fluorescence ratio: 1.06

Sequence: CGCGTGTCAC
- switch fluorescence ratio: 1.03

Sequence: TGTTTCCAAG
- switch fluorescence ratio: 1

Sequence: CACTGTTATC
- switch fluorescence ratio: 1.12

Sequence: TACGCACCCC
- switch fluorescence ratio: 1.08

Sequence: AGCGTAAGGA
- switch fluorescence ratio: 1.01

Sequence: CTGAGTGGG
- switch fluorescence ratio: 0.977

Sequence: TGAGTACGGT
- switch fluorescence ratio: 1.01

Sequence: TCATTCTAAA
- switch fluorescence ratio: 0.983

Sequence: GGGTTATCGC
- switch fluorescence ratio: 1.01

Sequence: TGGATAGAAG
- switch fluorescence ratio: 1.04

Sequence: AAACACACGT
- switch fluorescence ratio: 1.27

Sequence: GTTAGTTATT
- switch fluorescence ratio: 0.955

Sequence: GCTGTGGTCG
- switch fluorescence ratio: 1.05

Sequence: TTGAATGCTA
- switch fluorescence ratio: 0.992

Sequence: ACCTTTCCCC
- switch fluorescence ratio: 1.76

Sequence: GGTCTTATTG
- switch fluorescence ratio: 1.05

Sequence: CAACAAGAAA
- switch fluorescence ratio: 0.949

Sequence: AATTGGGAGG
- switch fluorescence ratio: 1.06

Sequence: TATACGAGC
- switch fluorescence ratio: 1.02

Sequence: CCTAGTGAGA
- switch fluorescence ratio: 1

Sequence: GGTAGGTCTC
- switch fluorescence ratio: 0.982

Sequence: AGAAGTATGA
- switch fluorescence ratio: 1.03

Sequence: ATTTTACTTT
- switch fluorescence ratio: 1.01

Sequence: CGAGGAAATA
- switch fluorescence ratio: 1.24

Sequence: TTACGATAGT
- switch fluorescence ratio: 1.01

Sequence: CTAAGTTCTC
- switch fluorescence ratio: 1.01

Sequence: ATAACAGTTT
- switch fluorescence ratio: 0.991

Sequence: GACTGCCGAG
- switch fluorescence ratio: 1.07

Sequence: GCTAGGAATC
- switch fluorescence ratio: 1.02

Sequence: GTCGCCCCCG
- switch fluorescence ratio: 1.02

Sequence: GGTTTCCTG
- switch fluorescence ratio: 0.968

Sequence: GGTGGTGATC
- switch fluorescence ratio: 0.995

Sequence: ATAAGGCATC
- switch fluorescence ratio: 0.966

Sequence: GAACTACGCG
- switch fluorescence ratio: 1.19

Sequence: GTGTTATCAG
- switch fluorescence ratio: 0.977

Sequence: CAATGTACAT
- switch fluorescence ratio: 0.963

Sequence: CGGCTGAAAT
- switch fluorescence ratio: 1.05

Sequence: ACACGCACCT
- switch fluorescence ratio: 1.64

Sequence: CCCATCCCGT
- switch fluorescence ratio: 0.991

Sequence: CTGCATGGCT
- switch fluorescence ratio: 1.08

Sequence: TATTACCGTG
- switch fluorescence ratio: 0.994

Sequence: CGTACAGAAA
- switch fluorescence ratio: 1.04

Sequence: GATAGTTAAC
- switch fluorescence ratio: 0.992

Sequence: GCTGAATATT
- switch fluorescence ratio: 0.966

Sequence: TGGCCTTCCG
- switch fluorescence ratio: 1.01

Sequence: ATGATCC
- switch fluorescence ratio: 1.03

Sequence: AAAACTGGTA
- switch fluorescence ratio: 0.963

Sequence: CGTATTGGCA
- switch fluorescence ratio: 0.978

Sequence: GCCTCCTTGT
- switch fluorescence ratio: 1.02

Sequence: CGTCATTCT
- switch fluorescence ratio: 1.02

Sequence: TGGCCGCGAC
- switch fluorescence ratio: 1.76

Sequence: CGTAGTGGGT
- switch fluorescence ratio: 1.17

Sequence: ATAACTTTCT
- switch fluorescence ratio: 1.08

Sequence: CATTTTAAGG
- switch fluorescence ratio: 0.974

Sequence: GACGCACAGG
- switch fluorescence ratio: 1.58

Sequence: GTGTTGAGTG
- switch fluorescence ratio: 1.03

Sequence: AAGCAGGAGG
- switch fluorescence ratio: 0.979

Sequence: CTGGATAAC
- switch fluorescence ratio: 1.02

Sequence: GGTACAGGAA
- switch fluorescence ratio: 1.04

Sequence: AATCCAAGGC
- switch fluorescence ratio: 1.07

Sequence: CCTAGGCGAC
- switch fluorescence ratio: 2.69

Sequence: ACGACAGGCA
- switch fluorescence ratio: 1.16

Sequence: GATCCTAT
- switch fluorescence ratio: 0.955

Sequence: AGTATATAAC
- switch fluorescence ratio: 0.984

Sequence: GGCATCAGCG
- switch fluorescence ratio: 1.01

Sequence: CCATCAGAAA
- switch fluorescence ratio: 1.05

Sequence: ATTATTCTGT
- switch fluorescence ratio: 0.947

Sequence: TTACGCAGTG
- switch fluorescence ratio: 1.03

Sequence: GTGGACAAAT
- switch fluorescence ratio: 1.04

Sequence: GTATAGGTAT
- switch fluorescence ratio: 1.01

Sequence: AGTAGGACGG
- switch fluorescence ratio: 1.33

Sequence: GGGTGGATTA
- switch fluorescence ratio: 1.03

Sequence: GGAGGCATCG
- switch fluorescence ratio: 1

Sequence: ATTCGCATGG
- switch fluorescence ratio: 1.32

Sequence: ATGCGTGAAA
- switch fluorescence ratio: 0.977

Sequence: ACGCTAGGGA
- switch fluorescence ratio: 1.03

Sequence: AACAGTCGG
- switch fluorescence ratio: 1.01

Sequence: CTCGTGTACG
- switch fluorescence ratio: 0.879

Sequence: ACCCGTTTGA
- switch fluorescence ratio: 1.02

Sequence: TCCGCTCACA
- switch fluorescence ratio: 2.34

Sequence: ATAAGCGTAG
- switch fluorescence ratio: 0.97

Sequence: ATCCAGCGGC
- switch fluorescence ratio: 1.04

Sequence: ACCAAGTGTG
- switch fluorescence ratio: 1.11

Sequence: GCTACGTTG
- switch fluorescence ratio: 1.07

Sequence: TGTAGGTGAG
- switch fluorescence ratio: 1.17

Sequence: TTTTAAAAG
- switch fluorescence ratio: 0.996

Sequence: CAAGGAGCAC
- switch fluorescence ratio: 1.08

Sequence: ATGAACTAG
- switch fluorescence ratio: 1.02

Sequence: TGTATCGGCA
- switch fluorescence ratio: 0.973

Sequence: CGCTGATATG
- switch fluorescence ratio: 1.03

Sequence: AACTCGGTTG
- switch fluorescence ratio: 0.973

Sequence: TTTGGCTC
- switch fluorescence ratio: 1

Sequence: TCCCTTCGAT
- switch fluorescence ratio: 1.04

Sequence: CTGGGACTGC
- switch fluorescence ratio: 1.01

Sequence: CACGCGCTGT
- switch fluorescence ratio: 1.02

Sequence: ATAGCTCGAG
- switch fluorescence ratio: 0.98

Sequence: CGGTTGCTTT
- switch fluorescence ratio: 0.951

Sequence: CGCAGGGTAG
- switch fluorescence ratio: 1.01

Sequence: GGCTTTGCCG
- switch fluorescence ratio: 1.03

Sequence: CCTGTATCCG
- switch fluorescence ratio: 1.1

Sequence: GCTATTTTAA
- switch fluorescence ratio: 0.972

Sequence: TTCACCGAA
- switch fluorescence ratio: 1.09

Sequence: CATTTTGCAC
- switch fluorescence ratio: 1.75

Sequence: TATAGCTACG
- switch fluorescence ratio: 0.998

Sequence: GGGAGCATTT
- switch fluorescence ratio: 0.994

Sequence: TCACTCGACT
- switch fluorescence ratio: 1.08

Sequence: GGATATTGGG
- switch fluorescence ratio: 0.963

Sequence: CCGATTTGCC
- switch fluorescence ratio: 1.22

Sequence: TCGCACGGTA
- switch fluorescence ratio: 1.05

Sequence: CTAGCTATGC
- switch fluorescence ratio: 1.29

Sequence: ATGATAAATA
- switch fluorescence ratio: 1.02

Sequence: ACGAGGGGC
- switch fluorescence ratio: 1.03

Sequence: GTAGTGGCTC
- switch fluorescence ratio: 1.41

Sequence: CAAGTATAAC
- switch fluorescence ratio: 0.982

Sequence: AGTGTCGATA
- switch fluorescence ratio: 1

Sequence: CCTTTCTCTG
- switch fluorescence ratio: 2.5

Sequence: TCCTGGGGAG
- switch fluorescence ratio: 1.12

Sequence: CTGGTCTTCG
- switch fluorescence ratio: 1.05

Sequence: AGTTGCGAGA
- switch fluorescence ratio: 0.978

Sequence: TCTATACGGA
- switch fluorescence ratio: 0.982

Sequence: TAAGTGACTC
- switch fluorescence ratio: 1.04

Sequence: ACTAGATCGT
- switch fluorescence ratio: 1.04

Sequence: CCCCTTTTGC
- switch fluorescence ratio: 1.03

Sequence: CATCACAGTG
- switch fluorescence ratio: 1.09

Sequence: AATAACGG
- switch fluorescence ratio: 1.01

Sequence: GAGGTCTAGC
- switch fluorescence ratio: 1

Sequence: TTATTTGTC
- switch fluorescence ratio: 0.995

Sequence: TTGAGATACT
- switch fluorescence ratio: 1.09

Sequence: AAGCAGAAGT
- switch fluorescence ratio: 1.01

Sequence: GTGTCCTGAG
- switch fluorescence ratio: 1

Sequence: TTAGGGGCTA
- switch fluorescence ratio: 1.04

Sequence: TTTTGTAAG
- switch fluorescence ratio: 1.01

Sequence: CAGATGGCGC
- switch fluorescence ratio: 0.991

Sequence: AGTGATAGCG
- switch fluorescence ratio: 0.982

Sequence: CGGGTTTGTA
- switch fluorescence ratio: 0.986

Sequence: TCAACGTACC
- switch fluorescence ratio: 1.68

Sequence: AGGCCCTCAG
- switch fluorescence ratio: 1.01

Sequence: ATGTGTTCTT
- switch fluorescence ratio: 0.989

Sequence: GCGTCTGCAC
- switch fluorescence ratio: 1.07

Sequence: AAACGTAT
- switch fluorescence ratio: 1.06

Sequence: ATTTCCTCGT
- switch fluorescence ratio: 1.11

Sequence: ACTAGCCTCT
- switch fluorescence ratio: 1.09

Sequence: CTTACTAC
- switch fluorescence ratio: 1.17

Sequence: TATTATCGGC
- switch fluorescence ratio: 0.985

Sequence: TATCTTGCAA
- switch fluorescence ratio: 5.25

Sequence: TGCGTTCTCT
- switch fluorescence ratio: 0.99

Sequence: TGAGGGACCC
- switch fluorescence ratio: 0.964

Sequence: CTTATGCATG
- switch fluorescence ratio: 1.01

Sequence: AGTCGGAAAC
- switch fluorescence ratio: 0.983

Sequence: GGGAGCTTA
- switch fluorescence ratio: 0.952

Sequence: GGATATAGAA
- switch fluorescence ratio: 1.02

Sequence: TTTAACCTCA
- switch fluorescence ratio: 1.01

Sequence: CGCTCATATA
- switch fluorescence ratio: 1.07

Sequence: ATGGAGCTGT
- switch fluorescence ratio: 1.09

Sequence: CTTAATCGGT
- switch fluorescence ratio: 1.02

Sequence: TCGGTTTCC
- switch fluorescence ratio: 0.943

Sequence: CTACCCTTTT
- switch fluorescence ratio: 1.01

Sequence: CCATGCTAGT
- switch fluorescence ratio: 1.02

Sequence: CGCCATGTTC
- switch fluorescence ratio: 1.11

Sequence: TCTACCGCCA
- switch fluorescence ratio: 2.25

Sequence: GGGGGTAT
- switch fluorescence ratio: 0.992

Sequence: CTGAGGCTC
- switch fluorescence ratio: 1.11

Sequence: GATATATCAA
- switch fluorescence ratio: 0.998

Sequence: TTAAGGGGC
- switch fluorescence ratio: 1.07

Sequence: ATACTAGTGT
- switch fluorescence ratio: 0.985

Sequence: TTTGAAGCC
- switch fluorescence ratio: 1.05

Sequence: TGAAGAAGTC
- switch fluorescence ratio: 0.963

Sequence: CGTCCTTTT
- switch fluorescence ratio: 1

Sequence: GATACGCTAT
- switch fluorescence ratio: 1.69

Sequence: CGAAGAGCTC
- switch fluorescence ratio: 1.02

Sequence: GGAGACGCGA
- switch fluorescence ratio: 1.12

Sequence: ATTTAAGGTT
- switch fluorescence ratio: 0.982

Sequence: TATACATTGC
- switch fluorescence ratio: 1.03

Sequence: ATGACGGCAT
- switch fluorescence ratio: 1.2

Sequence: AGATTTAAGG
- switch fluorescence ratio: 1

Sequence: TTGCCGAGAA
- switch fluorescence ratio: 1

Sequence: CACTTATTCC
- switch fluorescence ratio: 1.1

Sequence: TTTAGCCTTG
- switch fluorescence ratio: 0.992

Sequence: AGGGTAATAG
- switch fluorescence ratio: 1.04

Sequence: TATGGTAAT
- switch fluorescence ratio: 0.98
